The values that follow come from the antibiotic and cytotoxicity screens of Wong et al. (2023).

The list shows a part of the results.

One experiment deals with HSkMC (human skeletal muscle cells). Description: cytotoxicity call (relative viability < 0.9). The following applies: 10 µM.
On to `CCCCSP(=O)(SCCCC)SCCCC`, for which the cytotoxicity call was “inactive”.
As to `C/C=C(/C)C(=O)O[C@H]1CC[C@@]2(C)[C@@H]3CC[C@H]4[C@]5(O)C[C@H](O)[C@@]6(O)[C@@H](CN7C[C@@H](C)CC[C@H]7[C@@]6(C)O)[C@]5(O)C[C@@]42O[C@@]13O`, the cytotoxicity call is “inactive”.
Take `C=C(C)[C@@H]1[C@H]2OC(=O)[C@H]1[C@]1(O)C[C@H]3O[C@]34C(=O)O[C@H]2[C@]14C`: the cytotoxicity call was “inactive”.
Still for that read-out and setting: under `CN1C[C@H](C(=O)N[C@]2(C)O[C@@]3(O)[C@@H]4CCCN4C(=O)[C@H](Cc4ccccc4)N3C2=O)C[C@@H]2c3cccc4[nH]cc(c34)C[C@H]21` stands “inactive”.
Take `CCNC(=O)[C@H]1O[C@@H](n2cnc3c(N)ncnc32)[C@H](O)[C@@H]1O`: the cytotoxicity call was “inactive”.
On the same count and under the same terms, then `Cc1c(N)nc([C@H](CC(N)=O)NC[C@@H](N)C(N)=O)nc1C(=O)N[C@H](C(=O)N[C@@H](C)[C@H](O)[C@@H](C)C(=O)N[C@@H](C(=O)NCCc1nc(-c2nc(C(=O)NCCC[S+](C)C)cs2)cs1)[C@@H](C)O)[C@@H](O[C@H]1O[C@H](CO)[C@H](O)[C@@H](O)[C@H]1O[C@H]1O[C@H](CO)[C@@H](O)[C@H](OC(N)=O)[C@@H]1O)c1c[nH]cn1`, with “inactive”.
Same read-out and setting: then `CC(C)(O)C(Cl)(Cl)Cl`, with “inactive”.
On the same count and under the same terms, under `COc1ccn(C)c(=O)c1C#N` stands “inactive”; under `C[C@H](CO)N1C[C@H](C)[C@H](CN(C)C(=O)Oc2ccc3ccccc3c2)OCc2cn(nn2)CCCC1=O`, “inactive”; under `CC(=O)OC1CC2(C)C(c3ccoc3)CC3OC32C2(C)C(=O)C(O)=C3C(C)(C)C(=O)C=CC3(C)C12` (stereo not drawn), “active”.
Regarding `Nc1nc(=O)c2ncn([C@H]3O[C@@H](COP(=O)(O)OP(O)(O)=S)[C@H](O)[C@@H]3O)c2[nH]1`, the cytotoxicity call was “inactive”.
Same read-out and setting: under `CC1=NCCN=C(C)C1N1CCOCC1` stands “inactive”; under `NCCc1nc2ccccc2[nH]1`, “inactive”; under `C[N+](C)(C)CC(=O)[O-].Cl`, “inactive”.
On the same count and under the same terms, then `CC[C@@H](C)[C@H]1NC(=O)C(C(C)=O)=C1O`, with “inactive”; and `NC(=O)[C@H]1CNC(=O)C1`, with “inactive”.
The same measure, in the same setting: then `CCOC(=O)CC(SP(=S)(OC)OC)C(=O)OCC` (stereo not drawn), with “inactive”; and `CN1[C@@H]2CC[C@@H]1C[C@H](O)C2` (stereo partly drawn), with “inactive”; and `COc1ccc(O)c(C(C)(C)C)c1`, with “inactive”.
On to `Cc1cccc(N2CCNCC2)n1`, for which the cytotoxicity call was “inactive”.
Still for that read-out and setting: under `COc1ccc(OC(=O)N(C)C[C@H]2OCc3ccccc3-c3c(n(C)c4ccccc34)C(=O)N([C@H](C)CO)C[C@@H]2C)cc1` stands “inactive”.
On the same count and under the same terms, then `Cc1cccc(CN2C[C@H]3OCCN(C)[C@H]3C2)n1`, with “inactive”; and `CCN1C[C@]2(COC)CC[C@@H](OC)[C@@]34[C@@H]2[C@@H](OC)[C@@H]([C@@H]13)[C@]1(OC(C)=O)C[C@@H](OC)[C@@]2(O)C[C@H]4[C@@H]1[C@H]2OC(=O)c1ccc(OC)cc1`, with “inactive”; and `Cc1ccc2[nH]cc(C[C@@H](C)N)c2c1`, with “inactive”.
The same measure, in the same setting: under `C[C@@H]1CN([C@@H](C)CO)C(=O)c2c(c3ccccc3n2C)-c2ccccc2CO[C@@H]1CN(C)C(=O)Oc1ccccc1` stands “inactive”; under `NCc1cc(=O)[nH]o1`, “inactive”.
In the case of `NC1(c2ccc(F)cc2)CCC1`, the cytotoxicity call was “inactive”.
Consider `CCCCCCCCCCCCCCCC[N+](C)(C)C.[Br-]`, for which the cytotoxicity call was “active”.
On to `NC(=O)CN1CC(O)CC1=O` (stereo not drawn), for which the cytotoxicity call was “inactive”.
On to `O=C(CN1CCOCC1)c1ccc(O)cc1O`, for which the cytotoxicity call was “inactive”.
On the same count and under the same terms, under `CN1[C@@H]2CC[C@H]1C[C@H](O)C2` stands “inactive”; under `N[C@]1(C(=O)O)CC[C@@H](C(=O)O)C1`, “inactive”.
Turning to `c1csc(N2CCNCC2)n1`, the cytotoxicity call was “inactive”.
For `COc1ccc(OC(=O)N(C)C[C@@H]2OCc3ccccc3-c3c(n(C)c4ccccc34)C(=O)N([C@@H](C)CO)C[C@H]2C)cc1`, the cytotoxicity call was “inactive”.
Consider `CCC(N)C(O)c1ccc(O)c(O)c1.Cl` (stereo not drawn), for which the cytotoxicity call is “inactive”.
Same read-out and setting: then `Cc1ccc2n[nH]c(CN)c2c1`, with “inactive”; and `CCC12C=CCN3CCC4(c5ccc(OC)cc5N(C)C4C(O)(C(=O)OC)C1OC(C)=O)C32` (stereo not drawn), with “inactive”.
Take `NC(=O)N1C[C@@H]2C[C@H]1CN2`: the cytotoxicity call is “inactive”.
The same measure, in the same setting: then `CN(C)C1=NC(=O)C2(CCNCC2)N1`, with “inactive”.

For another experiment, the system named is HepG2. As to the kind of experiment: cytotoxicity call (relative viability < 0.9). The following applies: 10 µM.
For the compound `CCCCSP(=O)(SCCCC)SCCCC`, the cytotoxicity call was “inactive”.
In the case of `C/C=C(/C)C(=O)O[C@H]1CC[C@@]2(C)[C@@H]3CC[C@H]4[C@]5(O)C[C@H](O)[C@@]6(O)[C@@H](CN7C[C@@H](C)CC[C@H]7[C@@]6(C)O)[C@]5(O)C[C@@]42O[C@@]13O`, the cytotoxicity call was “inactive”.
Same read-out and setting: then `C=C(C)[C@@H]1[C@H]2OC(=O)[C@H]1[C@]1(O)C[C@H]3O[C@]34C(=O)O[C@H]2[C@]14C`, with “inactive”; and `CN1C[C@H](C(=O)N[C@]2(C)O[C@@]3(O)[C@@H]4CCCN4C(=O)[C@H](Cc4ccccc4)N3C2=O)C[C@@H]2c3cccc4[nH]cc(c34)C[C@H]21`, with “inactive”.
For the compound `CCNC(=O)[C@H]1O[C@@H](n2cnc3c(N)ncnc32)[C@H](O)[C@@H]1O`, the cytotoxicity call is “inactive”.
Same read-out and setting: under `Cc1c(N)nc([C@H](CC(N)=O)NC[C@@H](N)C(N)=O)nc1C(=O)N[C@H](C(=O)N[C@@H](C)[C@H](O)[C@@H](C)C(=O)N[C@@H](C(=O)NCCc1nc(-c2nc(C(=O)NCCC[S+](C)C)cs2)cs1)[C@@H](C)O)[C@@H](O[C@H]1O[C@H](CO)[C@H](O)[C@@H](O)[C@H]1O[C@H]1O[C@H](CO)[C@@H](O)[C@H](OC(N)=O)[C@@H]1O)c1c[nH]cn1` stands “inactive”.
On the same count and under the same terms, then `CC(C)(O)C(Cl)(Cl)Cl`, with “inactive”.
On the same count and under the same terms, under `COc1ccn(C)c(=O)c1C#N` stands “inactive”.
Regarding `C[C@H](CO)N1C[C@H](C)[C@H](CN(C)C(=O)Oc2ccc3ccccc3c2)OCc2cn(nn2)CCCC1=O`, the cytotoxicity call is “inactive”.
Still for that read-out and setting: then `CC(=O)OC1CC2(C)C(c3ccoc3)CC3OC32C2(C)C(=O)C(O)=C3C(C)(C)C(=O)C=CC3(C)C12` (stereo not drawn), with “active”; and `Nc1nc(=O)c2ncn([C@H]3O[C@@H](COP(=O)(O)OP(O)(O)=S)[C@H](O)[C@@H]3O)c2[nH]1`, with “inactive”.
For the compound `CC1=NCCN=C(C)C1N1CCOCC1`, the cytotoxicity call was “inactive”.
Consider `NCCc1nc2ccccc2[nH]1`, for which the cytotoxicity call was “inactive”.
Same read-out and setting: then `C[N+](C)(C)CC(=O)[O-].Cl`, with “inactive”; and `CC[C@@H](C)[C@H]1NC(=O)C(C(C)=O)=C1O`, with “inactive”.
The same measure, in the same setting: then `NC(=O)[C@H]1CNC(=O)C1`, with “inactive”; and `CCOC(=O)CC(SP(=S)(OC)OC)C(=O)OCC` (stereo not drawn), with “inactive”.
Same read-out and setting: then `CN1[C@@H]2CC[C@@H]1C[C@H](O)C2` (stereo partly drawn), with “inactive”; and `COc1ccc(O)c(C(C)(C)C)c1`, with “inactive”; and `Cc1cccc(N2CCNCC2)n1`, with “inactive”.
For `COc1ccc(OC(=O)N(C)C[C@H]2OCc3ccccc3-c3c(n(C)c4ccccc34)C(=O)N([C@H](C)CO)C[C@@H]2C)cc1`, the cytotoxicity call was “inactive”.
As to `Cc1cccc(CN2C[C@H]3OCCN(C)[C@H]3C2)n1`, the cytotoxicity call was “inactive”.
With `CCN1C[C@]2(COC)CC[C@@H](OC)[C@@]34[C@@H]2[C@@H](OC)[C@@H]([C@@H]13)[C@]1(OC(C)=O)C[C@@H](OC)[C@@]2(O)C[C@H]4[C@@H]1[C@H]2OC(=O)c1ccc(OC)cc1`, the cytotoxicity call was “inactive”.
Same read-out and setting: then `Cc1ccc2[nH]cc(C[C@@H](C)N)c2c1`, with “inactive”; and `C[C@@H]1CN([C@@H](C)CO)C(=O)c2c(c3ccccc3n2C)-c2ccccc2CO[C@@H]1CN(C)C(=O)Oc1ccccc1`, with “inactive”; and `NCc1cc(=O)[nH]o1`, with “inactive”.
Regarding `NC1(c2ccc(F)cc2)CCC1`, the cytotoxicity call is “inactive”.
The same measure, in the same setting: then `CCCCCCCCCCCCCCCC[N+](C)(C)C.[Br-]`, with “active”; and `NC(=O)CN1CC(O)CC1=O` (stereo not drawn), with “inactive”.
The same measure, in the same setting: then `O=C(CN1CCOCC1)c1ccc(O)cc1O`, with “inactive”; and `CN1[C@@H]2CC[C@H]1C[C@H](O)C2`, with “inactive”.
In the case of `N[C@]1(C(=O)O)CC[C@@H](C(=O)O)C1`, the cytotoxicity call is “inactive”.
On the same count and under the same terms, under `c1csc(N2CCNCC2)n1` stands “inactive”; under `COc1ccc(OC(=O)N(C)C[C@@H]2OCc3ccccc3-c3c(n(C)c4ccccc34)C(=O)N([C@@H](C)CO)C[C@H]2C)cc1`, “active”; under `CCC(N)C(O)c1ccc(O)c(O)c1.Cl` (stereo not drawn), “active”.
As to `Cc1ccc2n[nH]c(CN)c2c1`, the cytotoxicity call was “inactive”.
`CCC12C=CCN3CCC4(c5ccc(OC)cc5N(C)C4C(O)(C(=O)OC)C1OC(C)=O)C32` (stereo not drawn): the cytotoxicity call is “inactive”.
On the same count and under the same terms, then `NC(=O)N1C[C@@H]2C[C@H]1CN2`, with “inactive”; and `CN(C)C1=NC(=O)C2(CCNCC2)N1`, with “inactive”.
